Data from the RNAGym collection of RNA variant scans (doi:10.7554/elife.90254).
Read counts are not given, so values of variants with three or more changes are uncertain.

B1: LINE1-mini (parent)
chain: GGCAGAGCUCAACACAGCGUGGCAAAGUGGCUGUGGCUAGACUGCC

Variants of: B1
Experiment: self-cleavage, relative activity (ratio to wild type); higher = more cleavage; in vitro, sequencing; the parent is a self-cleaving ribozyme

**Q.** For GGCAGAGCUAAACCCAGCGGGGCAAAGUGGCUGUGGCUCGACUGCC [C10A A14C U20G A39C], which self-cleavage is on record?
**A.** 0

**Q.** With GGCAGAGCUAAACUCAGCGUGGCAAAGUGGCUGUGGCUAGACUGAC [C10A A14U C45A] as the variant, how does the self-cleavage read?
**A.** 0.05

**Q.** With GGCAGAGCUAACCCCAGCGUGGCAAUGUGGCUGUGGCUAGACUGCU [C10A A12C A14C A26U C46U] as the variant, how does the self-cleavage read?
**A.** 0.03

**Q.** Which self-cleavage does the source give for GGCAGAGCUAAACACAGCGUGGCAAUGUUGCUGUGGCUACACUGCC [C10A A26U G29U G40C] here?
**A.** 0.05

**Q.** Which self-cleavage does the source give for GGCAGAGCUAGGAACAGCGUGGCAAAGUGGCUGUGGCUAGACUGCC [C10A A11G A12G C13A] here?
**A.** 0.01

**Q.** For GGCAGAGCGCAACACAGCGUGUCAAAGUGGUUGCGGCUAGACUGCC [U9G G22U C31U U34C], which self-cleavage is on record?
**A.** 0.02

**Q.** With GGCAGAGCUAAACACAGCGUGGCAAUGUGGCUGUGGCUAGACUACC [C10A A26U G44A] as the variant, how does the self-cleavage read?
**A.** 0.04

**Q.** With GGCAGAGCUACACACAGCAUGGCAAAGUGGCUGUGGCUAGACUGGC [C10A A11C G19A C45G] as the variant, how does the self-cleavage read?
**A.** 0.02

**Q.** For GGCAGAGCUAACCACUGCGUGUCAAAGUGGCUGUGGCUACACUGCC [C10A A12C A16U G22U G40C], which self-cleavage is on record?
**A.** 0.01

**Q.** With GGCAGAGCGCAACACAGCGUGACGAGGUGGCUGUAGCGAGACUGCC [U9G G22A A24G A26G G35A U38G] as the variant, how does the self-cleavage read?
**A.** 0.01

**Q.** With GGCAGAGCUAAACUCAGCGUGCCAAAGUGUCUGUGGCUAGACUGCC [C10A A14U G22C G30U] as the variant, how does the self-cleavage read?
**A.** 0.01

**Q.** Which self-cleavage does the source give for GGCAGAGCGCAACACAGCGUGGCAAACUGGUUGUGGCUAGAGUGCC [U9G G27C C31U C42G] here?
**A.** 0.05

**Q.** With GGCAGAGCUAACUACAGCGUGGCAAAGUGGCUGUGGCUAUACUGCC [C10A A12C C13U G40U] as the variant, how does the self-cleavage read?
**A.** 0.01

**Q.** Which self-cleavage does the source give for GGCAGAGCUAACUACUGCGUGGCAAAGUGGGUGUGGCUAGCCUGCC [C10A A12C C13U A16U C31G A41C] here?
**A.** 0.01

**Q.** For GGCAGAGCUAAUCACAGCGUGGCAAAGUGGCUGUGGGUAGACUGCC [C10A A12U C37G], which self-cleavage is on record?
**A.** 0.01

**Q.** Which self-cleavage does the source give for GGCAGAGCUAAACACGGUGUGGCAAAGUGGCUGUGGCUAGACUGAC [C10A A16G C18U C45A] here?
**A.** 0.03

**Q.** Which self-cleavage does the source give for GGCAGAGCUACGCUCAGCGUGGUAAAGUGGCUGUGGCUAGACUGCC [C10A A11C A12G A14U C23U] here?
**A.** 0.01

**Q.** For GGCAGAGCUAAACACAGCGUGGCGAUGUGGCUGUGGCUAGUCUGCC [C10A A24G A26U A41U], which self-cleavage is on record?
**A.** 0.04

**Q.** With GGCAGAGCUAAACCCAGAGUGGCAAAGUGGCUGUGCCUUGACUGCC [C10A A14C C18A G36C A39U] as the variant, how does the self-cleavage read?
**A.** 0.01

**Q.** With GGCAGAGCUAAACACAGCGUGGCAAAGUGGCUGUGGCUGGACUGAC [C10A A39G C45A] as the variant, how does the self-cleavage read?
**A.** 0.01

**Q.** Which self-cleavage does the source give for GGCAGAGCUAAACACGGCGUGGCAAAGUGGCUGUCGCUAGACUGCC [C10A A16G G35C] here?
**A.** 0.04

**Q.** For GGCAGAGCUAAACACAGCGUGGCAGAAUGGCUGCGGCUAGACUGCC [C10A A25G G27A U34C], which self-cleavage is on record?
**A.** 0.02

**Q.** With GGCAGAGCUACACACAGCGUGGCAAAGGGGCUGUGCCUAGACUGCC [C10A A11C U28G G36C] as the variant, how does the self-cleavage read?
**A.** 0

**Q.** Which self-cleavage does the source give for GGCAGAGCUAAACACAGCGUGGCAACGUGGCGGUGGCUAGACUGCC [C10A A26C U32G] here?
**A.** 0.02

**Q.** Which self-cleavage does the source give for GGCAGAGCUAAACCCAGCGUGGCAAAGUGGCUGUGGCUAGAAGGCC [C10A A14C C42A U43G] here?
**A.** 0.01

**Q.** With GGCAGAGCUACACACAUCGUGGCAAAGUGGCAGCUGCUAGACUGCC [C10A A11C G17U U32A U34C G35U] as the variant, how does the self-cleavage read?
**A.** 0.01

**Q.** For GGCAGAGCUAGACACAGCGUGGCAAAGUGGCUGUGACUAGACUGCC [C10A A11G G36A], which self-cleavage is on record?
**A.** 0.03

**Q.** With GGCAGAGCUAGACAGAGCGUGGAAAAGUGGCUGUGGCAAGACUGCC [C10A A11G C15G C23A U38A] as the variant, how does the self-cleavage read?
**A.** 0.02

**Q.** With GGCAGAGCGCAACACAGCGUGGCAAAGUGGCUGUGGCAAGAUGGCC [U9G U38A C42U U43G] as the variant, how does the self-cleavage read?
**A.** 0.25

**Q.** Which self-cleavage does the source give for GGCAGAGCUACACACACCGUGGCAAAGUGGCUGUGGCUAUACUACC [C10A A11C G17C G40U G44A] here?
**A.** 0.01

**Q.** For GGCAGAGCUAAACACCGCGUGCCAAAGUGGCUGUGGCUAGACUGCA [C10A A16C G22C C46A], which self-cleavage is on record?
**A.** 0.02

**Q.** Which self-cleavage does the source give for GGCAGAGCUAACCACUGCCUGGCAAAGUUGCUGUGGCCAUACUGCC [C10A A12C A16U G19C G29U U38C G40U] here?
**A.** 0.02

**Q.** For GGCAGAGCUAGACACAGCGUGGCAAAGUGGCUGUGUUUAGACUGCC [C10A A11G G36U C37U], which self-cleavage is on record?
**A.** 0.02

**Q.** For GGCAGAGCUAAUCACAGCGUUGCAAAGUGGCUGUGGCUAGACUGCC [C10A A12U G21U], which self-cleavage is on record?
**A.** 0.02

**Q.** For GGCAGAGCGCAACACAGCGUGUCAAAGUGGCUGUGCCUAUACUGCC [U9G G22U G36C G40U], which self-cleavage is on record?
**A.** 0.13

**Q.** With GGCAGAGCUAAACACAGCGUGGCAAAGUGGCUGUGGCUCGACUGCU [C10A A39C C46U] as the variant, how does the self-cleavage read?
**A.** 0.08

**Q.** With GGCAGAGCUAAACACAGCGUGGCAAAGUGGCUGUGGCUCGACUGCA [C10A A39C C46A] as the variant, how does the self-cleavage read?
**A.** 0

**Q.** Which self-cleavage does the source give for GGCAGAGCGCAACACAGCGUGGCAAAGUGGCUAUGUCCAGACUGCC [U9G G33A G36U U38C] here?
**A.** 0.06

**Q.** For GGCAGAGCGCAACACAGCGUGGCAAAAUGGCAAUGCCUAGACUGCC [U9G G27A U32A G33A G36C], which self-cleavage is on record?
**A.** 0.01

**Q.** With GGCAGAGCUACACACAGCGUGGCAAAGUGGCUGUGGAUUGACUGCC [C10A A11C C37A A39U] as the variant, how does the self-cleavage read?
**A.** 0

**Q.** For GGCAGAGCUAAACCCAGCGUAGCAAAGUGGCUGUGGCUAGACUGCC [C10A A14C G21A], which self-cleavage is on record?
**A.** 0.03

**Q.** For GGCAGAGCUAACCACAGCGGUGCAAAGUGGCUGUGGCUUGACUUCC [C10A A12C U20G G21U A39U G44U], which self-cleavage is on record?
**A.** 0

**Q.** Which self-cleavage does the source give for GGCAGAGCUAAACACAGCGUGGCAUAGUGGCUGUAGCUAGACUGCC [C10A A25U G35A] here?
**A.** 0.03

**Q.** With GGCAGAGCGCAACACAGCGUGGCAAAGUGGCUGUGUCUUGACUGCC [U9G G36U A39U] as the variant, how does the self-cleavage read?
**A.** 0.18

**Q.** With GGCAGAGCGCAACACAGCGUGGCAAAGUGGCUGUUGUUAGACUGCC [U9G G35U C37U] as the variant, how does the self-cleavage read?
**A.** 0.15

**Q.** Which self-cleavage does the source give for GGCAGAGCUAAGCACCGCGUGGCAAAGUGGCUAUGGCCAGACUGCC [C10A A12G A16C G33A U38C] here?
**A.** 0.01

**Q.** With GGCAGAGCUAGAGACAUCGUGGCAUAGUGGCUGUGGCUAGAGUGCC [C10A A11G C13G G17U A25U C42G] as the variant, how does the self-cleavage read?
**A.** 0.02

**Q.** Which self-cleavage does the source give for GGCAGAGCGCAACACAGCGAGGCUAAGUGGCUGUGUCUAGACUGCC [U9G U20A A24U G36U] here?
**A.** 0

**Q.** With GGCAGAGCUAAACUCAGAGUGGCAAAGCGCCUGAGGCUAGACUGCC [C10A A14U C18A U28C G30C U34A] as the variant, how does the self-cleavage read?
**A.** 0.02

**Q.** With GGCAGAGCUAAUCAAAGUGUGGCAAAGUGGCUGUGUCUAGACUGCC [C10A A12U C15A C18U G36U] as the variant, how does the self-cleavage read?
**A.** 0.03

**Q.** With GGCAGAGCUAACCACAGCGUGGCAAAGUGGAUGUGGCUAGACUGCG [C10A A12C C31A C46G] as the variant, how does the self-cleavage read?
**A.** 0

**Q.** Which self-cleavage does the source give for GGCAGAGCUAAUCACAUCGUGGCAAAGUGGCUGUGGCCAGACUGCC [C10A A12U G17U U38C] here?
**A.** 0

**Q.** With GGCAGAGCUAAACGCAGCGUGGCCAAGUGGCUGUUGCGAAACUGCC [C10A A14G A24C G35U U38G G40A] as the variant, how does the self-cleavage read?
**A.** 0

**Q.** For GGCAGAGCGCAACACAGCGUGGCAAAGUGGCUGUCGCUAGACUGCU [U9G G35C C46U], which self-cleavage is on record?
**A.** 0.02

**Q.** Which self-cleavage does the source give for GGCAGAGCUAGACACAGCGUGGCAAAGUGGCUGUGGCUAAACUGCC [C10A A11G G40A] here?
**A.** 0.02

**Q.** Which self-cleavage does the source give for GGCAGAGCUACACACAGCGUGGCAAAGUGGCUGUGGAAUGACAGCC [C10A A11C C37A U38A A39U U43A] here?
**A.** 0.01
